Reference: PubChem BioAssay AID488969 (Vanderbilt High Throughput Screening Facility, 2010)
Over roughly 110,000 compounds, “z-score” has its median near -0.1; the highest 2% begin near 2. Some of the results follow.

biological target: Metabotropic glutamate receptor 8 (Rattus norvegicus) (UniProt P70579); assay: mGluR8 Gi/Go-coupled signaling modulation – cell-based, rat, thallium flux, HTS, primary screen (AID 488969); conditions: HEK293 rat mGluR8, GIRK (G protein-gated inwardly rectifying potassium channel) thallium flux, FluoZin2; at 10 µM; stronger effect = higher value; submaximal glutamate (EC20) added with thallium
Chain of UniProt P70579 (P70579 whole entry, looked up): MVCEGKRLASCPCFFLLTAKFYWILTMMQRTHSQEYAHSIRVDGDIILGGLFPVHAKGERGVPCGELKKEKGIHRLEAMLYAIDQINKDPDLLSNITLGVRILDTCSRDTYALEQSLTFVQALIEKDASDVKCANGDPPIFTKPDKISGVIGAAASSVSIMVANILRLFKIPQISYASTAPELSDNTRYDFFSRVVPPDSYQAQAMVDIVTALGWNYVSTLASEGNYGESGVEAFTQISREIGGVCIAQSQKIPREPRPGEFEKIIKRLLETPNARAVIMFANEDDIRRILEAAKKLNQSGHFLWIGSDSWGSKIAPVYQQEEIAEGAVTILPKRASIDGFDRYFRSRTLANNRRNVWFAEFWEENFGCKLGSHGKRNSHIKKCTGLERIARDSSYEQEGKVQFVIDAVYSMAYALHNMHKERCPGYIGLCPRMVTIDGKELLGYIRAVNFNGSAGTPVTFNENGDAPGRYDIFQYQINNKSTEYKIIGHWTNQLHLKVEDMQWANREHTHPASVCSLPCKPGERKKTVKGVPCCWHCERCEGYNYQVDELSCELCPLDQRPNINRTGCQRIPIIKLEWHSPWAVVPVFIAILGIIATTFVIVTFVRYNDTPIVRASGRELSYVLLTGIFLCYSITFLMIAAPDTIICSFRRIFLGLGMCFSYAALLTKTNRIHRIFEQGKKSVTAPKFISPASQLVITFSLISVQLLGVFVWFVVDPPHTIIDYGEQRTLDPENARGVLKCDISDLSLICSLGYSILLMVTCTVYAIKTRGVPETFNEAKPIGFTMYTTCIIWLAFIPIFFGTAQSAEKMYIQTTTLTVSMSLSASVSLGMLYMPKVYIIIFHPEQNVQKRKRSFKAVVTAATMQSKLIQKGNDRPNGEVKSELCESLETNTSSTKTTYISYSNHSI

Structure (SMILES) | z-score
Cc1sc2nc(CSCC(=O)Nc3ccccc3C#N)[nH]c(=O)c2c1C | -0.0633
O=C(Cn1c(=O)n(CC2CCCO2)c(=O)c2ccccc21)c1ccc(Cl)c(Cl)c1 (centres undefined) | -0.297
Cc1cnc(Nc2nc3ccccc3o2)nc1C(=O)Nc1cccc(C(F)(F)F)c1 | -0.463
COc1cc(C)c(C)cc1S(=O)(=O)N1CCN(Cc2ccccc2)CC1 | 0.139
O=C(CCc1ccccc1)n1nc(-c2ccccc2)nc1NCc1ccco1 | -0.0562
CCNC(=S)N/N=C(\C)c1cccc([N+](=O)[O-])c1 | 0.559
O=C(Cc1cccs1)Nc1nnc(SCc2ccc(F)cc2)s1 | -0.158
COc1cc(OC)c(OC)cc1CNCCNC(=O)c1nonc1N | -0.173
Nn1c(-c2ccco2)n[nH]c1=S | -0.454
COCCCNCCCOc1ccc(Cl)cc1C(C)(C)C | 0.908
COc1cc(C(=S)N2CCOCC2)ccc1OS(=O)(=O)c1ccccc1[N+](=O)[O-] | -0.106
COCCNC(=O)COC(=O)CSCc1nc2ccccc2s1 | -0.397
O=C(NCCCN=C1NS(=O)(=O)c2ccccc21)c1ccc(S(=O)(=O)N2CCOCC2)cc1 | -0.163
CCOC(=O)C1=C(C)N(c2ccccc2)C(=O)C1CC(=O)O (centres undefined) | 0.197
COc1ccc(-c2cc(C(F)F)n3ncc(C(=O)N4CCCCC4)c3n2)cc1 | -1.62
CN1C(=S)SC(/[N+]([O-])=C\c2ccccc2)C1(C)C (centres undefined) | 0.163
CSc1nc(Oc2ccccc2)c2sccc2n1 | -0.199
COc1ccc(OC)c(Nc2nc(N)nc(CSc3nnc(N)s3)n2)c1 | -0.0636
CC1CN(Cc2nc3c(c(=O)[nH]c(=O)n3C)n2CCCc2ccccc2)CC(C)O1 (centres undefined) | -0.229
COc1cc(C(=O)OCC(=O)N(C)C)cc(NC(=O)c2ccco2)c1OC | -0.0917
Cc1ccc2c(Cl)c(C(=O)Nc3ccc4c(c3)OCO4)sc2c1 | 0.402
CC(=O)N(CCCc1ccc(C(C)(C)C)cc1)CCCN(C)C | 1.42
COc1ccc(Cl)c(N2CCN(CCCNC(=O)Nc3ccc(C)cc3)CC2)c1 | 2.3
Cc1ccc2c(c1)C(=O)CCN2 | 0.498
CCn1cc(C(=O)NC(=S)Nc2sc3c(c2C(=O)OC)CCCCCC3)cn1 | -0.247
CCNC(=S)N1CCN(c2ccccn2)CC1 | 0.121
Cc1cccc(C(=O)OCC(=O)Nc2sc3c(c2C#N)CCC3)c1 | 0.126

Structure (SMILES) | z-score
C=C(C)C1CC=C(C)/C(=N\NC(=O)CNc2cccc3ccccc23)C1 (centres undefined) | 0.109
COc1cc(OC)c(NS(=O)(=O)c2cc(C(=O)OC(C)C(=O)NC3CC3)c(Cl)cc2Cl)cc1Cl (centres undefined) | -0.282
Cc1ccc(N(CC(=O)NC2CCCC2)C(=O)CCCC(=O)Nc2ccccn2)cc1C | -0.332
C/C(=N/NC(=O)c1ccco1)c1cccc(NC(=O)c2ccc(C)o2)c1 | -0.343
O=C1CSC(c2cccc(F)c2)N1c1ccc(O)cc1 (centres undefined) | -0.13
COc1nccnc1NS(=O)(=O)c1ccc(NC(=S)NC(=O)c2ccccc2)cc1 | 0.0809
COc1cc(/C=C(\C#N)C(=O)Nc2cc(C(F)(F)F)ccc2Cl)ccc1OCC(=O)Nc1cccc(C(F)(F)F)c1 | -0.0529
COCCNC(=O)/C(C#N)=C/c1cccc(/C=C(\C#N)C(=O)NCCOC)c1 | -0.235
O=C(Nc1cccc(NC(=O)c2ccc(-c3ccc(Br)cc3)o2)c1)c1ccco1 | 0.231
O=C(CSc1nnc(Cc2cccs2)n1C1CCCCC1)N1CCCc2ccccc21 | -0.263
CCn1c(CC(=O)Nc2ccccc2)nnc1SCC(=O)Nc1ccccc1C(=O)OC | -0.437
O=C(COc1ccccc1)NCC(=O)N/N=C/C=C/c1ccccc1 | -0.223
CCCOc1ccc(-c2nn(-c3ccccc3)cc2/C=C2\SC(=S)N(C3CCS(=O)(=O)C3)C2=O)cc1 (centres undefined) | 0.0736
CCCNC(=O)C1CN(S(=O)(=O)c2ccccc2)CCN1S(=O)(=O)c1ccccc1 (centres undefined) | -0.0722
COc1ccc(S(=O)(=O)N2CCOCC2)cc1NC(=O)c1ccccc1-c1ccc(C(F)(F)F)cc1 | -0.207
c1ccc2c(c1)CCN(Cc1nnnn1Cc1ccc3c(c1)OCO3)C2 | 0.228
O=S(=O)(NCCSCc1c(Cl)cccc1Cl)c1ccc2c(c1)OCCO2 | -0.356
Cc1ccc(NC(=O)c2cnccn2)c(OC(F)F)c1 | 0.143
CC(O)C(=O)N/N=C/c1cccc(Cl)c1Cl (centres undefined) | -0.0908
COc1cc(C(=O)NC(=S)NCc2ccco2)cc(OC)c1OC | -0.226
Cc1ccc(C(=O)c2c(NC(=O)c3ccncc3)sc3c2CCCC3)cc1 | -0.431
COCCN(C(=O)c1ccccc1)c1nnc(-c2cccnc2)s1 | -0.0208
O=C(N/N=C/c1ccccc1O)c1cccc(C(F)(F)F)c1 | 0.118
Cc1cc(C(=O)CSc2nnc(-c3ccccc3)o2)c(C)n1CC1COc2ccccc2O1 (centres undefined) | 0.112
CNC(=O)Nc1ccccc1F | 0.0432
CN1C=CC=C/C1=C1/SC(=S)N(Cc2ccccc2)C1=O | -0.0538
CN(C(=O)CSc1nc(N)nn1-c1ccccc1)c1ccccc1 | -0.316
